Laboratory results taken from EPA's CvTdb concentration-time database.
This continues a long series; more values of the same kind are listed elsewhere.

What was measured:
[1] = tested on: Rat; experiment: concentration in plasma after dosing; conditions: 10 min; dosed: alpha/beta-Thujone mixture; 50 mg/kg; oral; Male; F344
[2] = tested on: Rat; experiment: concentration in plasma after dosing; conditions: 6 h; dosed: alpha/beta-Thujone mixture; 25 mg/kg; oral; Male; F344
[3] = tested on: Rat; experiment: concentration in plasma after dosing; conditions: 10 min; dosed: 76231-76-0; 3.0 mg/kg; iv; Male; F344
[4] = tested on: Rat; experiment: concentration in brain after dosing; conditions: 3 h; dosed: alpha/beta-Thujone mixture; 50 mg/kg; oral; Male; F344
[5] = tested on: Rat; experiment: concentration in plasma after dosing; conditions: 6 h; dosed: alpha/beta-Thujone mixture; 50 mg/kg; oral; Male; F344
[6] = tested on: Rat; experiment: concentration in brain after dosing; conditions: 1 h; dosed: 76231-76-0; 3.0 mg/kg; iv; Female; F344
[7] = tested on: Rat; experiment: concentration in brain after dosing; conditions: 5 min; dosed: 76231-76-0; 3.0 mg/kg; iv; Female; F344
[8] = tested on: Rat; experiment: concentration in plasma after dosing; conditions: 5 min; dosed: alpha/beta-Thujone mixture; 50 mg/kg; oral; Male; F344
[9] = tested on: Rat; experiment: concentration in brain after dosing; conditions: 5 min; dosed: 76231-76-0; 3.0 mg/kg; iv; Male; F344
[10] = tested on: Rat; experiment: concentration in brain after dosing; conditions: 2 min; dosed: alpha/beta-Thujone mixture; 25 mg/kg; oral; Female; F344
[11] = tested on: Rat; experiment: concentration in plasma after dosing; conditions: 0.5 h; dosed: alpha/beta-Thujone mixture; 50 mg/kg; oral; Male; F344
[12] = tested on: Rat; experiment: concentration in brain after dosing; conditions: 1.5 h; dosed: 76231-76-0; 3.0 mg/kg; iv; Female; F344
[13] = tested on: Rat; experiment: concentration in plasma after dosing; conditions: 12 h; dosed: alpha/beta-Thujone mixture; 25 mg/kg; oral; Male; F344
[14] = tested on: Rat; experiment: concentration in plasma after dosing; conditions: 5 min; dosed: 76231-76-0; 3.0 mg/kg; iv; Male; F344
[15] = tested on: Rat; experiment: concentration in plasma after dosing; conditions: 2 min; dosed: alpha/beta-Thujone mixture; 25 mg/kg; oral; Female; F344
[16] = tested on: Rat; experiment: concentration in plasma after dosing; conditions: 5 min; dosed: alpha/beta-Thujone mixture; 25 mg/kg; oral; Male; F344
[17] = tested on: Rat; experiment: concentration in plasma after dosing; conditions: 6 h; dosed: 76231-76-0; 3.0 mg/kg; iv; Male; F344
[18] = tested on: Rat; experiment: concentration in brain after dosing; conditions: 10 min; dosed: 76231-76-0; 3.0 mg/kg; iv; Female; F344
[19] = tested on: Rat; experiment: concentration in plasma after dosing; conditions: 0.5 h; dosed: alpha/beta-Thujone mixture; 25 mg/kg; oral; Female; F344
[20] = tested on: Rat; experiment: concentration in plasma after dosing; conditions: 1 h; dosed: 76231-76-0; 3.0 mg/kg; iv; Male; F344
[21] = tested on: Rat; experiment: concentration in brain after dosing; conditions: 3 h; dosed: alpha/beta-Thujone mixture; 50 mg/kg; oral; Female; F344
[22] = tested on: Rat; experiment: concentration in brain after dosing; conditions: 0.75 h; dosed: 76231-76-0; 3.0 mg/kg; iv; Female; F344
[23] = tested on: Rat; experiment: concentration in plasma after dosing; conditions: 1.5 h; dosed: alpha/beta-Thujone mixture; 50 mg/kg; oral; Female; F344
[24] = tested on: Rat; experiment: concentration in brain after dosing; conditions: 3 h; dosed: alpha/beta-Thujone mixture; 25 mg/kg; oral; Male; F344
[25] = tested on: Rat; experiment: concentration in plasma after dosing; conditions: 2 min; dosed: alpha/beta-Thujone mixture; 50 mg/kg; oral; Male; F344
[26] = tested on: Rat; experiment: concentration in brain after dosing; conditions: 10 min; dosed: alpha/beta-Thujone mixture; 25 mg/kg; oral; Female; F344
[27] = tested on: Rat; experiment: concentration in plasma after dosing; conditions: 2 h; dosed: 76231-76-0; 3.0 mg/kg; iv; Male; F344
[28] = tested on: Rat; experiment: concentration in plasma after dosing; conditions: 0.5 h; dosed: alpha/beta-Thujone mixture; 50 mg/kg; oral; Female; F344
[29] = tested on: Rat; experiment: concentration in plasma after dosing; conditions: 5 min; dosed: 76231-76-0; 3.0 mg/kg; iv; Female; F344
[30] = tested on: Rat; experiment: concentration in liver after dosing; conditions: 768 h; dosed: 3,3',4,4',5-pentachlorobiphenyl; 1000 mg/kg; oral; Female; Harlan Sprague Dawley
[31] = tested on: Rat; experiment: concentration in liver after dosing; conditions: 1.5 h; dosed: 3,3',4,4',5-pentachlorobiphenyl; 1000 mg/kg; oral; Female; F344
[32] = tested on: Rat; experiment: concentration in liver after dosing; conditions: 2 h; dosed: 3,3',4,4',5-pentachlorobiphenyl; 1000 mg/kg; oral; Female; F344
[33] = tested on: Rat; experiment: concentration in liver after dosing; conditions: 3984 h; dosed: 3,3',4,4',5-pentachlorobiphenyl; 1000 mg/kg; oral; Female; F344
[34] = tested on: Rat; experiment: concentration in liver after dosing; conditions: 16 h; dosed: 3,3',4,4',5-pentachlorobiphenyl; 1000 mg/kg; oral; Female; F344
[35] = tested on: Rat; experiment: concentration in liver after dosing; conditions: 8 h; dosed: 3,3',4,4',5-pentachlorobiphenyl; 1000 mg/kg; oral; Female; F344
[36] = tested on: Rat; experiment: concentration in liver after dosing; conditions: 1.5 h; dosed: 3,3',4,4',5-pentachlorobiphenyl; 1000 mg/kg; oral; Female; F344; remark: listed apart in the source
[37] = tested on: Rat; experiment: concentration in liver after dosing; conditions: 768 h; dosed: 3,3',4,4',5-pentachlorobiphenyl; 1000 mg/kg; oral; Female; Harlan Sprague Dawley; remark: listed apart in the source
[38] = tested on: Rat; experiment: concentration in plasma after dosing; conditions: 8760 h; dosed: 3,3',4,4',5-pentachlorobiphenyl; 1000 mg/kg; oral; Male; Harlan Sprague Dawley
[39] = tested on: Rat; experiment: concentration in liver after dosing; conditions: 8760 h; dosed: 3,3',4,4',5-pentachlorobiphenyl; 1000 mg/kg; oral; Male; Harlan Sprague Dawley
[40] = tested on: Rat; experiment: concentration in liver after dosing; conditions: 2 h; dosed: 3,3',4,4',5-pentachlorobiphenyl; 1000 mg/kg; oral; Female; F344; remark: listed apart in the source
[41] = tested on: Rat; experiment: concentration in liver after dosing; conditions: 24 h; dosed: 3,3',4,4',5-pentachlorobiphenyl; 1000 mg/kg; oral; Female; F344

CC(C)[C@]12CC(=O)[C@H](C)[C@H]1C2 [alpha-Thujone]
Conditions | concentration in brain [ng/g] | concentration in plasma [ng/mL]
[1] | – | 727
[2] | – | 72.1
[3] | – | 277
[4] | 330 | –
[5] | – | 92.1
[6] | 100 | –
[7] | 3090 | –
[8] | – | 475
[9] | 2370 | –
[10] | 35.3 | –
[11] | – | 299
[12] | 52 | –
[13] | – | 15.1
[14] | – | 806
[15] | – | 12.9
[16] | – | 271
[17] | – | 21.4
[18] | 1850 | –
[19] | – | 270
[20] | – | 92.9
[21] | 435 | –
[22] | 177 | –
[23] | – | 73.1
[24] | 255 | –
[25] | – | 28.5
[26] | 2480 | –
[27] | – | 18.8
[28] | – | 640
[29] | – | 647

Clc1ccc(-c2cc(Cl)c(Cl)c(Cl)c2)cc1Cl [3,3',4,4',5-pentachlorobiphenyl]
Conditions | concentration in liver [pg/g] | concentration in plasma [ng/mL]
[30] | 6160 | –
[31] | 4080 | –
[32] | 6060 | –
[33] | 1250 | –
[34] | 12100 | –
[35] | 18400 | –
[36] | 2110 | –
[37] | 2600 | –
[38] | – | 0.0158
[39] | 762 | –
[40] | 3590 | –
[41] | 19700 | –
